Measured values published in patent US9839701B2, “Aromatic amino acid derivative and positron emission topography (PET) probe using the same” (OSAKA UNIVERSITY, priority 2013, dated 2017).
Read-outs that look alike come from different tables or passages of the source. At least one read-out could not be matched to a standard name with certainty.

Molecular target: T1, human LAT1 (Homo sapiens, UniProt Q01650)
T1 construct: expressed in transfected cells
Assay: Promoting effect on amino acid efflux from human LAT1 stably expressing cell line
Type: cell-based
Conditions: Km for amino acid efflux
Procedure: In the same manner as in Example 3, the human LAT1 stably expressing cell line and the human LAT2 stably expressing cell line were seeded on separate collagen-coated 24-well plates, and after 48 hours, the cells were washed with an uptake buffer prewarmed at 37° C. An uptake buffer supplemented with 1 μM of [^14C]L-leucine or [^14C]L-alanine was added to each well, and [^14C]L-leucine or [^14C]L-alanine uptake by the cells was allowed to proceed at 37° C. for 10 minutes. The cells were washed with an uptake buffer prewarmed at 37° C., treated with the compound of Example 1 or the positive control FAMT at 1, 2, 3, 5, 10, 20, 50, 100 or 200 μM, and incubated at 37° C. for 1 minute, and the supernatants were collected. The radioactivity in each supernatant was measured as the radioactivity of the amino acid released from the cells. Subsequently, 500 μL of 0.1 M NaOH was added to each well for cell lysis, 20 μL of the lysate was used for the measurement of the protein concentration, and the remaining lysate was used for the measurement of the residual radioactivity in the cells. The sum of the residual radioactivity and the released radioactivity in each experiment was checked to confirm that there was no great difference in the total radioactivity incorporated into the cells at the preloading among the experiments. Since human LAT1 and human LAT2 are exchange transporters, the number of molecules of the released radioactive amino acid is equal to that of the test compound incorporated into the cells.
Based on the measured values of amino acid efflux at the indicated concentrations of each compound, the Km value for amino acid efflux from the human LAT1 stably expressing cell line and the Km value for amino acid efflux from the human LAT2 stably expressing cell line were calculated and shown in Table 5. As is clear from Table 5, the affinity of the compound of Example 1 for human LAT1 was 10 times or more higher than that of FAMT.
The experiments in this Example were performed using the same 10 test compounds as used in Example 15 in the same manner as in Example 4. Based on the measured values of amino acid efflux at the indicated concentrations of each compound, the Km value for amino acid efflux from the human LAT1 stably expressing cell line and the Km value for amino acid efflux from the human LAT2 stably expressing cell line were calculated and shown in Table 7. As shown in this table, each test compound has a higher affinity for the human LAT1 stably expressing cell line than for the human LAT2 stably expressing cell line, and therefore has cancer selectivity. Also shown is that each test compound has a higher affinity for the human LAT1 stably expressing cell line than FAMT.

[1] = Table 7, read-out: Human LAT1 Km

T1 sequence (Q01650 whole entry): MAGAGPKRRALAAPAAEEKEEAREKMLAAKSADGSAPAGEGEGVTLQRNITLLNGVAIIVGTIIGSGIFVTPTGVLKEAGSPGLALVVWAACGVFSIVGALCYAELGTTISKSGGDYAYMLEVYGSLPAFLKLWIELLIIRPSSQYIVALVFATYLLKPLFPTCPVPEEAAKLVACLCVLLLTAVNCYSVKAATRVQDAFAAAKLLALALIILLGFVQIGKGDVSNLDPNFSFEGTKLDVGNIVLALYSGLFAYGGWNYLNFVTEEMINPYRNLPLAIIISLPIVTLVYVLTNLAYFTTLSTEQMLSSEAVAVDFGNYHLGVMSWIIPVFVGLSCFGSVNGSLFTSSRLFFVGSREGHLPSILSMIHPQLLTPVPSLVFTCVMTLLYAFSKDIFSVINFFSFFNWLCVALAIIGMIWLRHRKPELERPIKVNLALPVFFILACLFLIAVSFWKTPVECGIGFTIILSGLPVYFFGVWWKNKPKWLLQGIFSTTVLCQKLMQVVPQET
T1 sequence (P08195 102-630 partner): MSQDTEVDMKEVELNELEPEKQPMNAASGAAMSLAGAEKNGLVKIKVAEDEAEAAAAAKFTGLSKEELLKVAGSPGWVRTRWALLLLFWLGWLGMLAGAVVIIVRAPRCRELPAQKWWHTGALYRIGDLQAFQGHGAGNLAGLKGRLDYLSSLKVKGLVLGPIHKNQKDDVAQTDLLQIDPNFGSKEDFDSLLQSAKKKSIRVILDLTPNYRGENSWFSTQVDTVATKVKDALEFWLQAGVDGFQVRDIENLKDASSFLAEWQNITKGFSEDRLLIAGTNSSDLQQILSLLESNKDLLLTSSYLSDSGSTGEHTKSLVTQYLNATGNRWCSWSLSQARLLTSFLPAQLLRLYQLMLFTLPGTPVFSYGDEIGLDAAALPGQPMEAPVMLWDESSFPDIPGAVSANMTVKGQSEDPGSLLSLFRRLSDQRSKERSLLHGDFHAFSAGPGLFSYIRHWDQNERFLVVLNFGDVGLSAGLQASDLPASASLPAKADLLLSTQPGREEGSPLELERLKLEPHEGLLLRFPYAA

Row | Structure (SMILES) | Km [1] [µM] | Km (1-200 μM compound, Table 5, read-out: Affinity for human LAT1 Km) [µM]
1 | NC(Cc1cc(OCCF)ccc1I)C(=O)O (single isomer, unassigned) [compound 10a, 2-amino-3-(5-(2-fluoroethoxy)-2-iodophenyl)propanoic acid] | 17 | 
2 | NC(Cc1cc(OCCOCCF)ccc1I)C(=O)O (single isomer, unassigned) [compound 27 (R), 2-amino-3-(5-(2-(2-fluoroethoxy)ethoxy)-2-iodophenyl)propanoic acid] | 17.3 | 
3 | NC(Cc1cc(OCCF)ccc1I)C(=O)O (centres unmarked) [Example 1, 2-amino-3-(5-(2-fluoroethoxy)-2-iodophenyl)propanoic acid] |  | 5.2
4 | NC(Cc1cc(OCCF)ccc1Br)C(=O)O (single isomer, unassigned) [compound 24a, 2-amino-3-(2-bromo-5-(2-fluoroethoxy)phenyl)propanoic acid] | 21.5 | 
5 | NC(Cc1cc(OCCF)ccc1I)C(=O)O (single isomer, unassigned) [compound 10b, 2-amino-3-(5-(2-fluoroethoxy)-2-iodophenyl)propanoic acid] | 5.2 | 
6 | NC(Cc1cc(OCCCCF)ccc1I)C(=O)O (single isomer, unassigned) [compound 25a, 2-amino-3-(5-(4-fluorobutoxy)-2-iodophenyl)propanoic acid] | 16.2 | 
7 | NC(Cc1cc(OCCCCF)ccc1I)C(=O)O (single isomer, unassigned) [compound 25b, 2-amino-3-(5-(4-fluorobutoxy)-2-iodophenyl)propanoic acid] | 5.7 | 
8 | NC(Cc1cc(OCCF)ccc1C1CC1)C(=O)O (single isomer, unassigned) [compound 23b, 2-amino-3-(2-cyclopropyl-5-(2-fluoroethoxy)phenyl)propanoic acid] | 6.4 | 
9 | NC(Cc1cc(OCCF)ccc1Br)C(=O)O (single isomer, unassigned) [compound 24b, 2-amino-3-(2-bromo-5-(2-fluoroethoxy)phenyl)propanoic acid] | 6.5 | 
10 | NC(Cc1cc(OCCOCCF)ccc1I)C(=O)O (single isomer, unassigned) [compound 27 (S), 2-amino-3-(5-(2-(2-fluoroethoxy)ethoxy)-2-iodophenyl)propanoic acid] | 5.7 | 
11 | NC(Cc1cc(OCCF)ccc1C1CC1)C(=O)O (single isomer, unassigned) [compound 23a, 2-amino-3-(2-cyclopropyl-5-(2-fluoroethoxy)phenyl)propanoic acid] | 24.9 | 
